# Test results published in paper PMC4336329 (PLoS ONE, 2015).
# In all, about 310,000 compounds went through this assay and about 14,000 (4.5%) showed an effect of 50% or more. The effect is printed as a negative number. The list shows a part of the results.
# Molecular target: human ether-à-go-go-related gene (hERG) potassium channel (human, UniProt Q12809)
# Assay: primary screen, population patch clamp on CHO cells stably expressing hERG
# 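Note: peak tail current of the secondary pulse compared with the same well before compound.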
# Sequence of human ether-à-go-go-related gene (hERG) potassium channel (Q12809 whole entry, looked up): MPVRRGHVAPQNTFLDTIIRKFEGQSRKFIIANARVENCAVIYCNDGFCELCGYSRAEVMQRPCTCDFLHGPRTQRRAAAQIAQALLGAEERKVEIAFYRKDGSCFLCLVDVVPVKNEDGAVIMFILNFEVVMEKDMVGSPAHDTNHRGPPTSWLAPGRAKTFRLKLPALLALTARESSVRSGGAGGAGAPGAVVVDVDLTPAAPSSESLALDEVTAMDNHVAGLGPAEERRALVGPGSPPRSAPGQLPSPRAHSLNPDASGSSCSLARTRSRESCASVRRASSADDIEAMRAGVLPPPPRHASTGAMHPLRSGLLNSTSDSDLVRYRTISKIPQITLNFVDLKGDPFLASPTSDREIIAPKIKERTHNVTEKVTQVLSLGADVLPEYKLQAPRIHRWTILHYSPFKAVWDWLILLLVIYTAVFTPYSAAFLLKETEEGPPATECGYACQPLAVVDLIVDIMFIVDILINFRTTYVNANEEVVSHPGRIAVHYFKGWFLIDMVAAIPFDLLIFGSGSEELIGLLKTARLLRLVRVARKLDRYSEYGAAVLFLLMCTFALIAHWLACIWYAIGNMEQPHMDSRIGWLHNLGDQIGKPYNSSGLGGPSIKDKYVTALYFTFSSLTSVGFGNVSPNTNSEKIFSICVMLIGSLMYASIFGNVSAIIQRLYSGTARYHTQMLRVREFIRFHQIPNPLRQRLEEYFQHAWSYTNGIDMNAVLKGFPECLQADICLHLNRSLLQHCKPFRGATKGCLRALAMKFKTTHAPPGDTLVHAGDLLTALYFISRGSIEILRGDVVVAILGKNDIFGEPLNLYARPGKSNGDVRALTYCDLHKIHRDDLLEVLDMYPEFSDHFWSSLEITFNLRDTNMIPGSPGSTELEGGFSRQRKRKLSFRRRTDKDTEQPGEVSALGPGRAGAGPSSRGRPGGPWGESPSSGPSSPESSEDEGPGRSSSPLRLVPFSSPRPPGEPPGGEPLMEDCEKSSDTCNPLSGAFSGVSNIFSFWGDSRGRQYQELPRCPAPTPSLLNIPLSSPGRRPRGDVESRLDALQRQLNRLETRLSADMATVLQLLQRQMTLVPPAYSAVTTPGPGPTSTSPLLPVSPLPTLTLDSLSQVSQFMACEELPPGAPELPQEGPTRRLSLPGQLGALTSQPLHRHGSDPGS
row,Compound,"hERG current change (%, negative = inhibition) at 10uM [%]"
1,COc1ccc(OC)c(S(=O)(=O)N2CCC(C(=O)Nc3cc(C)ccc3C)CC2)c1,8.62
2,COc1ccc(C(=O)n2c(N)nc3ccccc32)cc1OC.Cl,-2.37
3,FC(F)(F)c1ccccc1NC(=S)N1CCN(Cc2ccc3c(c2)OCO3)CC1,-36.5
4,O=C(NCCc1ccc(Cl)cc1)Nc1cccc(Cl)c1,0.363
5,CN1CCN(c2ccc(C(=O)c3ccc(Br)cc3)cc2[N+](=O)[O-])CC1,-72.1
6,O=C(NCCOc1ccccc1)c1ccccc1Cl,-0.87
7,O=C(NCCOC(=O)c1cccs1)c1cccnc1,1.92
8,CC(C)(CNC(=O)Cc1ccc(Cl)cc1Cl)N1CCCCC1,7.29
9,CC(=O)Nc1ccccc1C(=O)C(=O)Nc1cccc(F)c1,3.43
10,O=C(c1cc2cc(Br)ccc2[nH]1)N1CCC2(CC1)OCCO2,-1.15
11,COc1cccc(-c2nnc(NC(=O)c3ccccc3Br)o2)c1,-8.88
12,COCCn1c(=O)[nH]c2cc(C(=O)NCCc3ccc(OC)c(OC)c3)ccc2c1=O,10.6
13,CC(c1ccco1)N(Cc1ccco1)C(=O)Nc1ccccc1 (stereo not drawn),3.62
14,Cc1nc(Nc2ccc(Cl)c(Cl)c2)sc1C(=O)Nc1ccccc1,10.9
15,CCC1CCCCN1CC(O)COCc1cccc(OC)c1 (stereo not drawn),3.15
16,Clc1ccc(-c2noc(CSc3nnc(-c4ccncc4)n3-c3ccccc3)n2)cc1,-39.2
17,COc1ccccc1N=c1oc2cc(O)ccc2cc1C(N)=O,-14.9
18,O=C(CCc1nnc2ccc(NCc3ccc(Cl)cc3)nn12)NC1CCCCC1,-19.7
19,O=C(/C=C/c1cc([N+](=O)[O-])ccc1OC(F)F)NCc1ccc(F)cc1,-43.7
20,CCOc1ccc(CC(=O)Nc2cc(=O)n(C)c(=O)n2C)cc1,25.7
21,COC(=O)C1=C(c2cccc(OC)c2OC)C[C@@H]2CC[C@H]1N2C(=O)NCCS(C)=O (stereo partly drawn),2.56
22,O=C(COC(=O)COc1cccc(Br)c1)Nc1c(Cl)cccc1Cl,18.1
23,CN(C)c1ccc(C(CNS(=O)(=O)c2ccc(F)c(F)c2)c2c[nH]c3ccccc23)cc1 (stereo not drawn),1.3

row,Compound,"hERG current change (%, negative = inhibition) at 10uM [%]"
1,COc1cc2cc(C(c3nnnn3C(C)(C)C)N3CCC(C)CC3)c(=O)[nH]c2cc1OC (stereo not drawn),-9.93
2,Cc1ccc(CN(c2ccc(C(=O)N3CCc4ccccc4C3)cc2)S(C)(=O)=O)cc1,-20.8
3,O=C(Nc1cc(Cl)cc(Cl)c1)C1CCC(=O)N1Cc1ccccc1Cl (stereo not drawn),8.65
4,Cc1cc(=O)oc2cc(OCC(=O)Nc3nnc(C(C)C)s3)ccc12,20.3
5,CC(C)C1S/C(=N/N=C/c2ccco2)NC1=O (stereo not drawn),1.37
6,NS(=O)(=O)c1ccc(Sc2nc3ccccc3s2)c([N+](=O)[O-])c1,3.91
7,O/N=C1/C(=C\c2ccccc2)N2CCC1CC2,-0.492
8,CC(NC(=O)c1ccco1)C(c1cccs1)N1CCN(c2ccccc2F)CC1 (stereo not drawn),-22.9
9,CC(C)(C)C(=O)NC(=S)NNC(=O)c1sc2ccccc2c1Cl,5.79
10,CC(C)Cn1c(S(=O)(=O)O)nc2ccccc21,-3.47
11,CCOC(=O)c1ccc(NC(=S)NCCc2ccc(F)cc2)cc1,23.2
12,Cc1cccc(C(=O)c2cn[nH]c2-c2ccccc2O)c1,19.5
13,O=C1C2C(c3ccccc3)C=CC(c3ccccc3)C2C(=O)N1CCO (stereo not drawn),-6.03
14,CC1(C)CC(NS(=O)(=O)c2ccc(S(=O)(=O)N3CCOCC3)cc2)CCO1 (stereo not drawn),0.423
15,COc1ccccc1NC(=O)CSc1n[nH]c(Cc2ccccc2)n1,21.2
16,CCOc1ccc(NC(=O)CCC(=O)NNC(=O)c2ccccc2Cl)cc1,6.46
17,Cc1ccc(C(C)C)c(O)c1,19.7
18,CCOc1ccc(N2C(=O)c3cccnc3C2Nc2ccc(C)c(C)c2)cc1 (stereo not drawn),-17.7
19,CSCCC(NC(=O)c1ccccc1)C(=O)N(C)CC(=O)Nc1ccc(N2CCOCC2)cc1 (stereo not drawn),5.72
20,CC(=O)Nc1ccc(-c2cn3cc(C)ccc3n2)cc1,-4.93
21,CCOC(=O)c1[nH]c2ccccc2c1NC(=O)CCN1CC(C)OC(C)C1 (stereo not drawn),-0.714
22,COc1cccc(CN2c3ccc(Br)cc3C(=O)CS2(=O)=O)c1,-6.61
